Patent publication US11207320B2, “Compositions and methods for cancer expressing PDE3A or SLFN12” (The Broad Institute, Inc., priority 2015, dated 2021)
Further values from the same series stand in other lists.

Tested on: 766 cancer cell lines
Assay: Large-scale cell-line viability measurements (766 cancer cell lines, 72 h, AUC)
Type: cell-based, human
Conditions: 72 hours
Experimental: Cell lines were treated for 72 hours with concentrations ranging from 66.4 μM-2 nM in 2-fold step dilutions.
To characterize cellular sensitivity to DNMDP further, 766 genomically characterized cancer cell lines were screened for DMNDP sensitivity at concentrations ranging from 66.4 μM to 2 nM in 2-fold dilution steps for 72 hours. From these cell lines, 22 cell lines were categorized as sensitive with a robust Z-score lower than −4, which represented multiple lineages including multiple melanoma cell lines, amongst others (Table 1).
The sensitivity of […] cancer cell lines (CCLs) was measured drawn from 23 different lineages to DNMDP. Each cell line was plated in its preferred media in white opaque 1536-plates at a density of 500 cells/well. After incubating overnight, DNMDP was added by acoustic transfer at 16 concentrations ranging from 66.4 μM-2 nM in 2-fold steps in duplicate (Labcyte Echo 555, Labcyte Inc., Sunnyvale, Calif.). After 72 hours treatment, cellular ATP levels were measured as a surrogate for viability (CELLTITERGLO®, Promega Corporation, Madison, Wis.) according to manufacturer's protocols using a ViewLux Microplate Imager (PerkinElmer, Waltham, Mass.) and normalized to background (media-only) and vehicle (DMSO)-treated control wells.
Concentration response curves were fit using nonlinear fits to 2- or 3-parameter sigmoid functions through all 16 concentrations with the low-concentration asymptote set to the DMSO-normalized value, and an optimal 8-point dose curve spanning the range of compound-sensitivity was identified. The area under the 8-point dose curve (AUC) was computed by numeric integration as a metric for sensitivity for further analysis. Similar sensitivity measurements have been obtained for a collection of 480 other compounds, enabling analyses that identify cell lines responding uniquely to DNMDP (see Broad Institute Cancer Therapeutics Response Portal, a dataset to identify comprehensively relationships between genetic and lineage features of human cancer cell lines and small-molecule sensitivities for complete list of compounds).

[1] = KIJK (HAEMATOPOIETIC AND LYMPHOID TISSUE)
[2] = KMS18 (HAEMATOPOIETIC AND LYMPHOID TISSUE)
[3] = KMS27 (HAEMATOPOIETIC AND LYMPHOID TISSUE)
[4] = M07E (HAEMATOPOIETIC AND LYMPHOID TISSUE)
[5] = MM1S (HAEMATOPOIETIC AND LYMPHOID TISSUE)
[6] = MOLT16 (HAEMATOPOIETIC AND LYMPHOID TISSUE)
[7] = MONOMAC1 (HAEMATOPOIETIC AND LYMPHOID TISSUE)

Compound: CCN(CC)c1ccc(C2=NNC(=O)CC2C)cc1[N+](=O)[O-] (centres unmarked) [DNMDP, 6-(4-(diethylamino)-3-nitrophenyl)-5-methyl-4,5-dihydropyridazin-3(2H)-one]
- DNMDP AUC [1]: 6.305
- Robust Z-score [1]: −0.346
- DNMDP AUC (KMRC2 (KIDNEY)): 6.3393
- Robust Z-score (KMRC2 (KIDNEY)): −0.31
- DNMDP AUC (KMRC3 (KIDNEY)): 6.3514
- Robust Z-score (KMRC3 (KIDNEY)): −0.2973
- DNMDP AUC (KMRC20 (KIDNEY)): 6.3063
- Robust Z-score (KMRC20 (KIDNEY)): −0.3447
- DNMDP AUC [2]: 6.2973
- Robust Z-score [2]: −0.3541
- DNMDP AUC [3]: 6.2607
- Robust Z-score [3]: −0.3925
- DNMDP AUC (KNS42 (CENTRAL NERVOUS SYSTEM)): 5.0791
- Robust Z-score (KNS42 (CENTRAL NERVOUS SYSTEM)): −1.633
- DNMDP AUC (KNS60 (CENTRAL NERVOUS SYSTEM)): 6.4642
- Robust Z-score (KNS60 (CENTRAL NERVOUS SYSTEM)): −0.1789
- DNMDP AUC (KPNSI9S (AUTONOMIC GANGLIA)): 5.6827
- Robust Z-score (KPNSI9S (AUTONOMIC GANGLIA)): −0.9992
- DNMDP AUC (KPNYN (AUTONOMIC GANGLIA)): 5.6717
- Robust Z-score (KPNYN (AUTONOMIC GANGLIA)): −1.011
- DNMDP AUC (KURAMOCHI (OVARY)): 6.3842
- Robust Z-score (KURAMOCHI (OVARY)): −0.2629
- DNMDP AUC (L33 (PANCREAS)): 3.625
- Robust Z-score (L33 (PANCREAS)): −3.159
- DNMDP AUC (LI7 (LIVER)): 2.5414
- Robust Z-score (LI7 (LIVER)): −4.296
- DNMDP AUC (LOVO (LARGE INTESTINE)): 6.4266
- Robust Z-score (LOVO (LARGE INTESTINE)): −0.2184
- DNMDP AUC (LU65 (LUNG)): 6.3082
- Robust Z-score (LU65 (LUNG)): −0.3427
- DNMDP AUC [4]: 6.3511
- Robust Z-score [4]: −0.2976
- DNMDP AUC (M059K (CENTRAL NERVOUS SYSTEM)): 5.3059
- Robust Z-score (M059K (CENTRAL NERVOUS SYSTEM)): −1.395
- DNMDP AUC (MDAMB157 (BREAST)): 6.5173
- Robust Z-score (MDAMB157 (BREAST)): −0.1232
- DNMDP AUC (MDAMB175VII (BREAST)): 6.2981
- Robust Z-score (MDAMB175VII (BREAST)): −0.3533
- DNMDP AUC (MDAMB453 (BREAST)): 6.3691
- Robust Z-score (MDAMB453 (BREAST)): −0.2787
- DNMDP AUC (MFE296 (ENDOMETRIUM)): 5.5618
- Robust Z-score (MFE296 (ENDOMETRIUM)): −1.126
- DNMDP AUC (MG63 (BONE)): 5.3943
- Robust Z-score (MG63 (BONE)): −1.302
- DNMDP AUC (ML1 (THYROID)): 6.5066
- Robust Z-score (ML1 (THYROID)): −0.1344
- DNMDP AUC [5]: 6.3604
- Robust Z-score [5]: −0.2879
- DNMDP AUC [6]: 6.2966
- Robust Z-score [6]: −0.3548
- DNMDP AUC [7]: 2.9692
- Robust Z-score [7]: −3.847
- DNMDP AUC (MPP89 (PLEURA)): 6.3817
- Robust Z-score (MPP89 (PLEURA)): −0.2655
- DNMDP AUC (NCIH69 (LUNG)): 6.2243
- Robust Z-score (NCIH69 (LUNG)): −0.4307
- DNMDP AUC (NCIH146 (LUNG)): 5.5773
- Robust Z-score (NCIH146 (LUNG)): −1.11
- DNMDP AUC (NCIH196 (LUNG)): 2.5263
- Robust Z-score (NCIH196 (LUNG)): −4.312
- DNMDP AUC (NCIH211 (LUNG)): 6.4058
- Robust Z-score (NCIH211 (LUNG)): −0.2402
- DNMDP AUC (NCIH446 (LUNG)): 6.3331
- Robust Z-score (NCIH446 (LUNG)): −0.3165
- DNMDP AUC (NCIH520 (LUNG)): 3.1351
- Robust Z-score (NCIH520 (LUNG)): −3.673
- DNMDP AUC (NCIH647 (LUNG)): 3.2187
- Robust Z-score (NCIH647 (LUNG)): −3.586
- DNMDP AUC (NCIH854 (LUNG)): 5.576
- Robust Z-score (NCIH854 (LUNG)): −1.111
- DNMDP AUC (NCIH1105 (LUNG)): 6.2191
- Robust Z-score (NCIH1105 (LUNG)): −0.4362
- DNMDP AUC (NCIH1155 (LUNG)): 6.4497
- Robust Z-score (NCIH1155 (LUNG)): −0.1941
- DNMDP AUC (NCIH1339 (LUNG)): 6.3509
- Robust Z-score (NCIH1339 (LUNG)): −0.2978
- DNMDP AUC (NCIH1395 (LUNG)): 4.4473
- Robust Z-score (NCIH1395 (LUNG)): −2.296
- DNMDP AUC (NCIH1568 (LUNG)): 6.4489
- Robust Z-score (NCIH1568 (LUNG)): −0.195
- DNMDP AUC (NCIH1581 (LUNG)): 6.3747
- Robust Z-score (NCIH1581 (LUNG)): −0.2729
- DNMDP AUC (NCIH1666 (LUNG)): 3.6097
